{"source": "paper PMC11995724", "about": "“Antibiotic target discovery by integrated phenotypic and activity-based profiling of electrophilic fragments” (Cell chemical biology, 2025)", "note": "Screen size: about 3,200 compounds; about 75 (2%) showed an effect of 50% or more. Some of the results follow.", "data": [{"test_system": "T1, S. aureus MSSA476", "T1 construct": "MSSA476", "parameters": "species or system S. aureus MSSA476 (TSB) or V. cholerae SAD30 (LB); 384-well bacterial growth screen at 25 uM, OD600 relative to DMSO control", "conditions": "relative growth, OD600, TSB; 25 µM; inhibitor", "units": {"% of control remaining": "%"}, "values": [{"molecule": "C=CC(=O)NCC1=NOCC1", "note": "[3-G16, N-[(4,5-dihydro-1,2-oxazol-3-yl)methyl]prop-2-enamide]", "% of control remaining": 95.7771}, {"molecule": "CC(Cl)C(=O)NC(C)c1cnn(CC2CCC2)c1", "note": "(stereo not drawn) [5-L15, 2-chloro-N-{1-[1-(cyclobutylmethyl)-1H-pyrazol-4-yl]ethyl}propanamide]", "% of control remaining": 97.2678}, {"molecule": "COc1ccc(C=C(C#N)C(=O)Nc2cc(C)ccc2C)cc1Cl", "note": "[9-B22, 3-(3-chloro-4-methoxyphenyl)-2-cyano-N-(2,5-dimethylphenyl)prop-2-enamide]", "% of control remaining": 103.071}, {"molecule": "C=CC(=O)N1CCc2c(ncn2-c2ccccc2)C1", "note": "[3-N09, 1-{1-phenyl-1H,4H,5H,6H,7H-imidazo[4,5-c]pyridin-5-yl}prop-2-en-1-one]", "% of control remaining": 117.719}, {"molecule": "C=CC(=O)N1CCC(C(=O)N2CCCC(c3cnn(C)c3)C2)CC1", "note": "(stereo not drawn) [2-N16, 1-{4-[3-(1-methyl-1H-pyrazol-4-yl)piperidine-1-carbonyl]piperidin-1-yl}prop-2-en-1-one]", "% of control remaining": 99.913}, {"molecule": "C=CC(=O)N(CC)CC(=O)N1CCN(c2ccc(C#N)cc2F)CC1", "note": "[3-D03, N-{2-[4-(4-cyano-2-fluorophenyl)piperazin-1-yl]-2-oxoethyl}-N-ethylprop-2-enamide]", "% of control remaining": 92.9909}, {"molecule": "CN(C(=O)CCl)C(c1ccc(Cl)cc1)C(F)(F)F", "note": "(stereo not drawn) [7-J16, 2-chloro-N-[1-(4-chlorophenyl)-2,2,2-trifluoroethyl]-N-methylacetamide]", "% of control remaining": 101.413}, {"molecule": "CNC(=O)CC(NC(=O)CCl)c1ccc(F)cc1F", "note": "(stereo not drawn) [4-I16, 3-(2-chloroacetamido)-3-(2,4-difluorophenyl)-N-methylpropanamide]", "% of control remaining": 111.672}, {"molecule": "CC1CN(C(=O)C(C#N)=Cc2c(Cl)cccc2Cl)CC(C)O1", "note": "(stereo not drawn) [8-O12, 3-(2,6-dichlorophenyl)-2-(2,6-dimethylmorpholine-4-carbonyl)prop-2-enenitrile]", "% of control remaining": 124.481}, {"molecule": "C=CCN(Cc1cccs1)C(=O)CCl", "note": "[5-B06, 2-chloro-N-(prop-2-en-1-yl)-N-[(thiophen-2-yl)methyl]acetamide]", "% of control remaining": 77.9599}, {"molecule": "CN(c1ccc(C(=O)CCl)cc1)S(C)(=O)=O", "note": "[10-F19, N-[4-(2-chloroacetyl)phenyl]-N-methylmethanesulfonamide]", "% of control remaining": -0.3125}, {"molecule": "CC(C)C(C)N(Cc1ccns1)C(=O)CCl", "note": "(stereo not drawn) [5-M12, 2-chloro-N-(3-methylbutan-2-yl)-N-[(1,2-thiazol-5-yl)methyl]acetamide]", "% of control remaining": 77.9599}, {"molecule": "C=CC(=O)Nc1cc(NC(=O)C2CC3CCC2CC3)ccc1F", "note": "(stereo not drawn) [1-C17, N-[4-fluoro-3-(prop-2-enamido)phenyl]bicyclo[2.2.2]octane-2-carboxamide]", "% of control remaining": 94.2418}, {"molecule": "COc1ccc(NC(=O)C(C)Cl)cc1Cl", "note": "(stereo not drawn) [4-I14, 2-chloro-N-(3-chloro-4-methoxyphenyl)propanamide]", "% of control remaining": 115.102}, {"molecule": "CS(=O)(=O)N1CCc2cc(C(=O)CCl)ccc21", "note": "[10-B19, 2-chloro-1-(1-methanesulfonyl-2,3-dihydro-1H-indol-5-yl)ethan-1-one]", "% of control remaining": 0.3125}, {"molecule": "CC(Cl)C(=O)Nc1ccc(Cl)cc1Cl", "note": "(stereo not drawn) [4-L17, 2-chloro-N-(2,4-dichlorophenyl)propanamide]", "% of control remaining": 92.9967}, {"molecule": "C=CC(=O)NC1CC2CCC(C1)N2S(C)(=O)=O", "note": "(stereo not drawn) [2-A18, N-{8-methanesulfonyl-8-azabicyclo[3.2.1]octan-3-yl}prop-2-enamide]", "% of control remaining": 153.177}, {"molecule": "C=CC(=O)N1CCC(C(=O)NCC2([S+](C)[O-])CCC2)CC1", "note": "(stereo not drawn) [2-D18, N-[(1-methanesulfinylcyclobutyl)methyl]-1-(prop-2-enoyl)piperidine-4-carboxamide]", "% of control remaining": 114.186}, {"molecule": "CC(Cl)C(=O)NC(c1ccccc1)c1ccccc1", "note": "(stereo not drawn) [5-A21, 2-chloro-N-(diphenylmethyl)propanamide]", "% of control remaining": 92.5319}, {"molecule": "O=C(CCl)Nc1cc(-n2nnnc2C2CC2)ccc1F", "note": "[6-E09, 2-chloro-N-[5-(5-cyclopropyl-1H-1,2,3,4-tetrazol-1-yl)-2-fluorophenyl]acetamide]", "% of control remaining": 74.0976}, {"molecule": "N#CC(=Cc1ccc(N2CCCCCC2)cc1)C(=O)NCC1CCCO1", "note": "(stereo not drawn) [9-H15, 3-[4-(azepan-1-yl)phenyl]-2-cyano-N-[(oxolan-2-yl)methyl]prop-2-enamide]", "% of control remaining": 120.749}, {"molecule": "C=CC(=O)N1CCCCC1c1nc2ccccc2o1", "note": "(stereo not drawn) [3-O20, 1-[2-(1,3-benzoxazol-2-yl)piperidin-1-yl]prop-2-en-1-one]", "% of control remaining": 102.046}, {"molecule": "CC(Cl)C(=O)NCC1=CCCOC1", "note": "(stereo not drawn) [7-I05, 2-chloro-N-[(5,6-dihydro-2H-pyran-3-yl)methyl]propanamide]", "% of control remaining": 101.099}, {"molecule": "N#CC(=Cc1cccc(O)c1)C(=O)Nc1ccccc1C(F)(F)F", "note": "[9-A20, 2-cyano-3-(3-hydroxyphenyl)-N-[2-(trifluoromethyl)phenyl]prop-2-enamide]", "% of control remaining": 94.6816}, {"molecule": "Cc1cccc(NC(=O)C(C)Cl)c1", "note": "(stereo not drawn) [5-P10, 2-chloro-N-(3-methylphenyl)propanamide]", "% of control remaining": 114.39}, {"molecule": "CC(Cl)C(=O)N1CCC(Oc2ccc(C3CC3)cn2)C1", "note": "(stereo not drawn) [7-A18, 2-chloro-1-{3-[(5-cyclopropylpyridin-2-yl)oxy]pyrrolidin-1-yl}propan-1-one]", "% of control remaining": 102.041}, {"molecule": "CC(Cl)C(=O)N1CC(S(=O)(=O)Nc2ccccc2)C1", "note": "(stereo not drawn) [7-G05, 1-(2-chloropropanoyl)-N-phenylazetidine-3-sulfonamide]", "% of control remaining": 89.4819}, {"molecule": "Cc1cc(C)n2c(-c3c(Cl)cccc3NC(=O)CCl)nnc2n1", "note": "[5-M16, 2-chloro-N-(3-chloro-2-{5,7-dimethyl-[1,2,4]triazolo[4,3-a]pyrimidin-3-yl}phenyl)acetamide]", "% of control remaining": 93.9891}, {"molecule": "C=CC(=O)NCc1nc(-c2ccc(F)cc2)n[nH]1", "note": "[3-D04, N-{[3-(4-fluorophenyl)-1H-1,2,4-triazol-5-yl]methyl}prop-2-enamide]", "% of control remaining": 97.8668}, {"molecule": "Cc1ccc(Oc2ccc(Cl)cc2NC(=O)CCl)cc1", "note": "[4-A21, 2-chloro-N-[5-chloro-2-(4-methylphenoxy)phenyl]acetamide]", "% of control remaining": 133.397}, {"molecule": "C=CC(=O)N1CCC(C(=O)NCc2ccc(OC)cn2)CC1", "note": "[3-O19, N-[(5-methoxypyridin-2-yl)methyl]-1-(prop-2-enoyl)piperidine-4-carboxamide]", "% of control remaining": 120.853}, {"molecule": "O=C(O)C(c1ccccc1)N1C(=O)C=CC1=O", "note": "(stereo not drawn) [10-E21, 2-(2,5-dioxo-2,5-dihydro-1H-pyrrol-1-yl)-2-phenylacetic acid]", "% of control remaining": 130.313}, {"molecule": "O=C(CCl)NC1CCCc2cn(C3CCCC3)nc21", "note": "(stereo not drawn) [5-O09, 2-chloro-N-(2-cyclopentyl-4,5,6,7-tetrahydro-2H-indazol-7-yl)acetamide]", "% of control remaining": 114.754}, {"molecule": "CC(Cl)C(=O)NC(C)(C)c1cccc(Cl)c1F", "note": "(stereo not drawn) [7-E15, 2-chloro-N-[2-(3-chloro-2-fluorophenyl)propan-2-yl]propanamide]", "% of control remaining": 94.5055}, {"molecule": "C=CC(=O)N1CCC(c2nc(C(=O)O)cs2)CC1", "note": "[1-O21, 2-[1-(prop-2-enoyl)piperidin-4-yl]-1,3-thiazole-4-carboxylic acid]", "% of control remaining": 110.066}, {"molecule": "CC(Cl)C(=O)NCc1ncnn1C(C)C", "note": "(stereo not drawn) [5-P15, 2-chloro-N-{[1-(propan-2-yl)-1H-1,2,4-triazol-5-yl]methyl}propanamide]", "% of control remaining": 95.8106}, {"molecule": "NC(=O)c1csc(C(=O)CCl)c1", "note": "[10-L06, 5-(2-chloroacetyl)thiophene-3-carboxamide]", "% of control remaining": 114.687}, {"molecule": "N#CC(=Cc1ccccc1Cl)C(=O)NCc1ccccc1", "note": "[9-F13, N-benzyl-3-(2-chlorophenyl)-2-cyanoprop-2-enamide]", "% of control remaining": 78.2022}, {"molecule": "N#CC(=Cc1ccc2c(c1)OCCO2)C(=O)NC1CCCCC1", "note": "[9-J19, 2-cyano-N-cyclohexyl-3-(2,3-dihydro-1,4-benzodioxin-6-yl)prop-2-enamide]", "% of control remaining": 104.569}, {"molecule": "C=CC(=O)Nc1ccc(F)c(-n2nnnc2C)c1", "note": "[2-K11, N-[4-fluoro-3-(5-methyl-1H-1,2,3,4-tetrazol-1-yl)phenyl]prop-2-enamide]", "% of control remaining": 122.541}, {"molecule": "C=CC(=O)N1CCOC(Cn2nc(C)cc2C)C1", "note": "(stereo not drawn) [3-C13, 1-{2-[(3,5-dimethyl-1H-pyrazol-1-yl)methyl]morpholin-4-yl}prop-2-en-1-one]", "% of control remaining": 89.5081}, {"molecule": "C=CC(=O)NCC1CCc2nnc(C(C)C)n2C1", "note": "(stereo not drawn) [2-J03, N-{[3-(propan-2-yl)-5H,6H,7H,8H-[1,2,4]triazolo[4,3-a]pyridin-6-yl]methyl}prop-2-enamide]", "% of control remaining": 84.5953}, {"molecule": "CC(NC(=O)CCl)C(=O)N1CCCCC1C", "note": "(stereo not drawn) [5-M06, 2-chloro-N-[1-(2-methylpiperidin-1-yl)-1-oxopropan-2-yl]acetamide]", "% of control remaining": 96.1749}, {"molecule": "C=CC(=O)N1CCC(n2ncc3ccccc32)CC1", "note": "[1-K22, 1-[4-(1H-indazol-1-yl)piperidin-1-yl]prop-2-en-1-one]", "% of control remaining": 113.934}, {"molecule": "CCN(C(=O)CCl)c1ccccc1", "note": "[6-E15, 2-chloro-N-ethyl-N-phenylacetamide]", "% of control remaining": 87.4146}]}]}
